# Assay results published in PubChem BioAssay (NCATS).
# Inconclusive results, whose numbers are uncertain, are shown with a selection of clear calls. For some assays here: No potency is given beside an inconclusive call; the fits are too rough. Active and inactive are the calls of the source. Unless noted, the call rests on the fitted dose curve; in most records, active means well fitted curve in the direction sought with a large enough effect; inconclusive means small, poorly fitted or top-dose-only effect, or another doubt; inactive means no such curve, though single readings can be large; an effect the other way counts as inactive or inconclusive.
# How the values were obtained:
# [1] = molecular target: Glucocorticoid receptor (Homo sapiens) (UniProt P04150); experiment: qHTS assay for small molecule antagonists of glucocorticoid receptor signaling (AID 588533; active means well fitted inhibition curve with a large enough effect in the signal ratio, with a control signal flat, not every such curve was filed as active; inconclusive means small, poorly fitted or top-dose-only effect, or effect the other way, or a change in a side signal; the % refers to the signal ratio;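 further: cells stimulated with 2 nM dexamethasone as agonist; on the % scale 0 is the no-effect control and ±100 the full control effect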); conditions: HeLa MMTV-bla, GRE beta-lactamase ratio, antagonist mode, 18 h
# [2] = molecular target: Peroxisome proliferator-activated receptor gamma (Homo sapiens) (UniProt P37231); experiment: qHTS assay for small molecule agonists of peroxisome proliferator-activated receptor gamma signaling (AID 588536; active means well fitted curve in the direction sought with a large enough effect in the signal ratio, with a control signal flat, not every such curve was filed as active; inconclusive means small, poorly fitted or top-dose-only effect, or effect the other way, or a change in a side signal; inactive means no such curve, though single readings can be large or run the other way; the % refers to the signal ratio;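 further: 0% = DMSO basal wells and 100% = rosiglitazone at 2 µM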); conditions: HEK293 PPARg-UAS-bla, beta-lactamase ratio, 16 h; activation: at 76.7 µM (top of the series), percent of rosiglitazone response, DMSO as zero unless noted
# Method in brief: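 GeneBLAzer PPAR-gamma-UAS-bla HEK293 cells in 1% charcoal/dextran-treated FBS medium were treated 16 h at 37 C with compounds. Beta-lactamase activity was read by CCF4 ratio (460/530 nm). Response was normalized to 2 uM rosiglitazone (100%) and DMSO, then Hill-fitted for EC50 and efficacy.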
# [3] = molecular target: Retinoic acid receptor RXR-alpha (Homo sapiens) (UniProt P19793); experiment: qHTS assay for small molecule agonists of retinoid X receptor alpha signaling (AID 588544; calls by dose curve; further: potency means the concentration at half of the fitted maximal effect;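 on activation: 0% = DMSO basal wells and 100% = reference agonist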); conditions: HEK293T RXRa-UAS-bla, beta-lactamase reporter, 18 h; activation: at 76.7 µM (top of the series) unless noted
# [4] = molecular target: Thyroid hormone receptor beta (Homo sapiens) (UniProt P10828); experiment: qHTS assay for small molecule agonists of thyroid hormone receptor beta signaling (AID 588545; calls by dose curve;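 further: 0% = DMSO only and 100% = 10 nM T3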); conditions: TR-UAS-bla GripTite HEK 293, beta-lactamase ratio, agonist mode, 18 h; activation: at 76.7 µM, percent of T3 response, DMSO as zero
# Method in brief: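 Compounds were tested as agonists in TR-UAS-bla-GripTite HEK 293 cells. After 18 hrs at 37 C, CCF4 substrate was added and fluorescence read after 2 hrs at room temperature.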
# [5] = molecular target: Thyroid hormone receptor beta (Homo sapiens) (UniProt P10828); experiment: qHTS assay for small molecule antagonists of thyroid hormone receptor beta signaling (AID 588547; active means well fitted inhibition curve with a large enough effect in the signal ratio, with a control signal flat, not every such curve was filed as active; inconclusive means small, poorly fitted or top-dose-only effect, or effect the other way, or a change in a side signal; the % refers to the signal ratio; further: potency means the concentration at half of the fitted maximal effect;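 on activity change % (negative = inhibition): cells stimulated with 0.4 nM T3 agonist during compound exposure; on the % scale 0 is the no-effect control and ±100 the full control effect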); conditions: TR-UAS-bla HEK293, beta-lactamase ratio, antagonist mode, 18 h
# Method in brief: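 Inhibition of T3-driven (0.4nM final) beta-lactamase reporter activity was measured over 0.59 nM to 92 uM compound after 18 h at 37 C. The cells were GripTite HEK293 TR-UAS-bla in charcoal/dextran-stripped serum, with CCF4 ratio read-out and IC50 from Hill fits.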
# [6] = MultiTox-Fluor Cytotoxicity Assay - LYMP1-002 - Dead Cells (AID 960); conditions: LYMP1-002 lymphoblastoid cells, dead-cell protease fluorescence; cytotoxicity (dead cells): at 46.1 µM (top of the series); further: potency means the concentration at half of the fitted maximal effect; nearly all actives have a fitted effect of over 60% in size
# Method in brief: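 Human lymphoblastoid LYMP1-002 cells, 2500/well, treated 16 h at 37 C; dead-cell protease cleavage of bis-AAF-R110 read by fluorescence (485/520); normalized to DMSO and 15 uM tetraoctylammonium bromide; AC50 from Hill fit.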
# [7] = qHTS assay for small molecule agonists of the antioxidant response element (ARE) signaling pathway (AID 651741; active means well fitted activation curve with a large enough effect in the signal ratio; inconclusive means small, poorly fitted or top-dose-only effect, or effect the other way, or a change in a side signal; the % refers to the signal ratio; further: % of control where 0% means no effect); conditions: HepG2 ARE-bla reporter, beta-lactamase FRET ratio, 16 h; activation: at 96 µM (top of the series) unless noted
# Method in brief: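 Quantitative HTS in HepG2 cells stably expressing an ARE-beta-lactamase reporter; 16 h compound exposure at 37 C, followed by 2 h room-temperature incubation with LiveBLAzer B/G FRET substrate and fluorescence measurement.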
# [8] = qHTS assay to identify small molecules that stimulate interleukin-8 (IL-8) secretion (AID 651758; active means well fitted activation curve with a large enough effect in the signal ratio; inconclusive means small, poorly fitted or top-dose-only effect, or effect the other way, or a change in a side signal; the % refers to the signal ratio; further: 0% is about no effect); conditions: HTRF ratio (665/615); activation: at 92.2 µM (top of the series)
# Method in brief: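 Secreted IL-8 measured by TR-FRET sandwich (cryptate and XL665 antibodies) from THP-1 cells exposed to compound overnight (16 hrs, 37 C).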
# [9] = Cell Viability - LYMP2-015 (AID 971); conditions: LYMP2-015 lymphoblastoid cell viability; activity change, negative = lower viability: at 92.2 µM (top of the series);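 further: 0% = DMSO only and full effect = 92 µM tetraoctylammonium bromide; nearly all actives have a fitted effect of over 55% in size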
# Method in brief: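 LYMP2-015 human lymphoblastoid cells (2500/well) in complete medium, compound-treated 24 h at 37 C; viability read as cellular ATP by CellTiter-Glo luminescence after 30 min at room temperature. AC50 from Hill-equation fits of qHTS concentration-response data.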
# [10] = molecular target: Peroxisome proliferator-activated receptor delta (Homo sapiens) (UniProt Q03181); experiment: qHTS assay for small molecule agonists of peroxisome proliferator-activated receptor delta signaling (AID 588534; calls by dose curve; further: potency means the concentration at half of the fitted maximal effect); conditions: HEK293T PPARdelta-UAS-bla, beta-lactamase ratio, 18 h; activation: at 76.7 µM (top of the series)
# Method in brief: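 Cells carrying a PPAR-delta beta-lactamase reporter were treated with compounds for 18 h at 37 °C in agonist mode. CCF4 fluorescence was read after 2 h; EC50 and efficacy from Hill fits.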
# [11] = molecular target: Peroxisome proliferator-activated receptor gamma (Homo sapiens) (UniProt P37231); experiment: qHTS assay for small molecule antagonists of peroxisome proliferator-activated receptor gamma signaling (AID 588537; active means well fitted inhibition curve with a large enough effect in the signal ratio, with a control signal flat, not every such curve was filed as active; inconclusive means small, poorly fitted or top-dose-only effect, or effect the other way, or a change in a side signal; the % refers to the signal ratio;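 further: reporter cells co-stimulated with 50 nM rosiglitazone agonist during compound treatment; % of control where 0% means no effect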); conditions: HEK293 PPARg-UAS-bla, beta-lactamase ratio, antagonist mode; activity, negative = inhibition: at 76.8 µM (top of the series)
# Method in brief: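 Antagonist mode, beta-lactamase reporter in HEK293; charcoal/dextran FBS 1%; 3000 cells/well, 37 C 6-6.5 h; cpd titration + rosiglitazone 50 nM final, 16 h 37 C; CCF4, 2 h RT; 460/530 nm; Hill fit → IC50, efficacy.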
# [12] = molecular target: Vitamin D3 receptor (Homo sapiens) (UniProt P11473); experiment: qHTS assay for small molecule antagonists of vitamin D receptor signaling (AID 588541; calls by dose curve;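 further: receptor activated by calcitriol during compound treatment; on the % scale 0 is the no-effect control and ±100 the full control effect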); conditions: HEK293T VDR-UAS-bla, beta-lactamase ratio, antagonist mode; activity change, negative = inhibition: at 76.7 µM (top of the series)
# [13] = qHTS assay for small molecule agonists of the antioxidant response element (ARE) signaling pathway measured by Nrf2-dependant transcriptional activity (AID 720636; active means well fitted curve in the direction sought with a large enough effect in the repeat runs; inconclusive means weak or mixed curves; inactive means no such curve, though single readings can be large; an effect the other way counts as inactive or inconclusive; further: potency means the concentration at half of the fitted maximal effect)
# Method in brief: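 Attachment 6 hr at 37 C, then compound versus DMSO vehicle for 16 hr in ARE-luc HepG2 cells (1% dialyzed FBS); luminescence recorded 30 min after ONE-Glo addition at room temperature.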
# [14] = molecular target: Cytochrome P450 3A4 (Homo sapiens) (UniProt P08684); experiment: qHTS Assay for Inhibitors and Substrates of Cytochrome P450 3A4 (AID 884); further: on the % scale 0 is the no-effect control and ±100 the full control effect; nearly all actives have a fitted effect of over 50% in size
# Method in brief: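 20 nM human CYP3A4 with 25 uM Luciferin-PPXE (at KM) in 200 mM KPO4, preincubated 10 min with compound; NADPH regeneration started a 60 min RT reaction. Luciferin detected by luminescence, normalized to 57 uM ketoconazole as full inhibition.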
# [15] = Cell Viability - LYMP1-003 - Assay at 24 hr (AID 963);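 further: plate controls were DMSO only for no effect and tetraoctylammonium bromide positive control for full effect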
# Method in brief: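 Human lymphoblastoid LYMP1-003 cells, 2500/well, treated 24 h at 37 C in complete medium. Viability read as intracellular ATP by CellTiter-Glo luminescence after 30 min at room temperature; AC50 from Hill-equation fits of qHTS concentration-response.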
# [16] = Cell Viability - LYMP2-004 (AID 966); conditions: LYMP2-004 lymphoblastoid cell viability, qHTS; activity change, negative = cytotoxicity: at 92.2 µM (top of the series);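 further: plate controls were DMSO only for no effect and tetraoctylammonium bromide control for full effect; nearly all actives have a fitted effect of over 65% in size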
# Method in brief: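 Lymphoblastoid LYMP2-004 cells, 2500 per well, were preincubated for 5 hr and then treated with compound for 24 h at 37 C in complete medium. Viability was read as cellular ATP by CellTiter-Glo luminescence, and AC50 values were taken from Hill fits to concentration-response data.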
# [17] = molecular target: Peroxisome proliferator-activated receptor delta (Homo sapiens) (UniProt Q03181); experiment: qHTS assay for small molecule antagonists of peroxisome proliferator-activated receptor delta signaling (AID 588535; active means well fitted inhibition curve with a large enough effect in the signal ratio, with a control signal flat, not every such curve was filed as active; inconclusive means small, poorly fitted or top-dose-only effect, or effect the other way, or a change in a side signal; inactive means no such curve, though single readings can be large or run the other way; the % refers to the signal ratio; further: potency means the concentration at half of the fitted maximal effect); conditions: HEK293T PPARd-UAS-bla, beta-lactamase FRET ratio, 18 h; activity change, negative = inhibition: at 76.7 µM (top of the series) unless noted
# Method in brief: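 HEK293T PPAR-delta-UAS-bla cells, 4000/well, 2% charcoal/dextran FBS; 5 h 37 C; cpd titration; 18 h 37 C; CCF4 2 h RT; FI 460/530 nm; Hill fit → IC50, efficacy.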
# [18] = Cell Viability - LYMP2-001 (AID 921); conditions: LYMP2-001 lymphoblastoid cell viability; activity change, negative = cytotoxic: at 92.2 µM (top of the series); further: potency means the concentration at half of the fitted maximal effect; nearly all actives have a fitted effect of over 70% in size
# Method in brief: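 Cellular ATP loss read by luciferase luminescence after 24 h compound exposure at 37 C in complete medium. LYMP2-001 lymphoblastoid cells, 2500/well; qHTS concentration-response data fitted with Hill equation for AC50.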
# [19] = Cell Viability - LYMP2-023 (AID 975);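 further: cellular ATP measured by luciferase luminescence as viability proxy; cells exposed to compound for 24 hours at 37 °C; plate controls were DMSO only for no effect and 92 µM tetraoctylammonium bromide control for full effect; nearly all actives have a fitted effect of over 55% in size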
# Method in brief: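 LYMP2-023 human lymphoblastoid cells, 2500/well, preincubated 5 hr at 37 C, then compound-treated 24 hr at 37 C in complete medium. CellTiter-Glo luminescence (ATP) after 30 min at room temperature; AC50 from Hill-equation fits; tetraoctylammonium bromide positive control.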
# [20] = Cellular Toxicity (caspase-3) HepG2 (AID 654);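 further: cells exposed to compound for 16 hours before reading; 0% = DMSO alone and 100% = caspase signal from 100 µM tamoxifen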
# Method in brief: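 HepG2 cells (1500/well) were treated 16 h at 37 °C in complete medium, then caspase 3/7 activity was read by Caspase-Glo luminescence. Data were normalized to DMSO and 100 uM tamoxifen; AC50 came from Hill-equation fits of qHTS concentration-response.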
# [21] = Cell Viability - LYMP2-009 (AID 968);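 further: 0% = DMSO alone and the full-kill end = tetraoctylammonium bromide at 92 µM; nearly all actives have a fitted effect of over 55% in size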
# [22] = Cell Viability - LYMP2-013 (AID 970);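 further: 0% = DMSO only and full inhibition = tetraoctylammonium bromide control; nearly all actives have a fitted effect of over 55% in size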
# Method in brief: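 Human lymphoblastoid LYMP2-013 cells, 2500/well, treated 24 h at 37 C in complete medium; viability as intracellular ATP by CellTiter-Glo luminescence after 30 min. AC50 from Hill fits of qHTS concentration-response.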
# [23] = molecular target: Retinoic acid receptor RXR-alpha (Homo sapiens) (UniProt P19793); experiment: qHTS assay for small molecule antagonists of retinoid X receptor alpha signaling (AID 588546; active means well fitted inhibition curve with a large enough effect in the signal ratio, with a control signal flat, not every such curve was filed as active; inconclusive means small, poorly fitted or top-dose-only effect, or effect the other way, or a change in a side signal; inactive means no such curve, though single readings can be large or run the other way; the % refers to the signal ratio;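 further: cells stimulated with 9-cis-retinoic acid as agonist; on the % scale 0 is the no-effect control and ±100 the full control effect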); conditions: HEK293T RXRa-UAS-bla, beta-lactamase ratio, antagonist mode
# Method in brief: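 Beta-lactamase reporter inhibition, read as CCF4 fluorescence ratio (ex 405, em 460/530 nm) after 2 h at RT. HEK293T UAS-bla cells, 2500/well, were stimulated with 9-cis-RA at 500 or 100 nM final alongside test compound for 18 h at 37 C.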
# [24] = activity change, negative = inhibition: at 76.8 µM (top of the series) unless noted
# Tags describe the fitted curve by direction and shape or compound fluorescence and quenching.
# Chain of UniProt P10828 (P10828 whole entry, looked up): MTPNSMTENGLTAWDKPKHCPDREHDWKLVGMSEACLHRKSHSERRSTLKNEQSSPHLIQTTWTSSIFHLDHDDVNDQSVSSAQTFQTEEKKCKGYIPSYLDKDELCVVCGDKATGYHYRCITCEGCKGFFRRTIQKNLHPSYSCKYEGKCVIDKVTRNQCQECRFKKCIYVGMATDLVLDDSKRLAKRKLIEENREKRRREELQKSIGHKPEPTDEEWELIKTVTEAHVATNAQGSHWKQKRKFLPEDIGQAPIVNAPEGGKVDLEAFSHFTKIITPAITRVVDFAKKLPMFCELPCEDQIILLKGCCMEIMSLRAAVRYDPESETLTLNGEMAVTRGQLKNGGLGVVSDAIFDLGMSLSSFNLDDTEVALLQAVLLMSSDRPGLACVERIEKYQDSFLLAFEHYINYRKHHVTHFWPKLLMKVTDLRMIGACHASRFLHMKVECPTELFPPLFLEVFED
# Chain of UniProt P19793 (P19793 whole entry, looked up): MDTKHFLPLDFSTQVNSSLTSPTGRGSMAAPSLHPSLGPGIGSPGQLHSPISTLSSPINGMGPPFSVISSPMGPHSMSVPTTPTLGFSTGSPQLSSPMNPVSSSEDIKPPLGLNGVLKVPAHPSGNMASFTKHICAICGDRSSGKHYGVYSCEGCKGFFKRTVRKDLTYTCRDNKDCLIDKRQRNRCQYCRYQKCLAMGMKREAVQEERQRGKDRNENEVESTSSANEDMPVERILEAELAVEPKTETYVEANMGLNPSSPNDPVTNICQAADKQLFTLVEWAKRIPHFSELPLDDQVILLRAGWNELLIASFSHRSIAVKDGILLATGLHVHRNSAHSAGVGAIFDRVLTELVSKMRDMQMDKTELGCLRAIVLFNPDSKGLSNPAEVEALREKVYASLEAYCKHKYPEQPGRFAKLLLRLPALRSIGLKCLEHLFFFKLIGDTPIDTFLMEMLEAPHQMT
# Chain of UniProt Q03181 (Q03181 whole entry, looked up): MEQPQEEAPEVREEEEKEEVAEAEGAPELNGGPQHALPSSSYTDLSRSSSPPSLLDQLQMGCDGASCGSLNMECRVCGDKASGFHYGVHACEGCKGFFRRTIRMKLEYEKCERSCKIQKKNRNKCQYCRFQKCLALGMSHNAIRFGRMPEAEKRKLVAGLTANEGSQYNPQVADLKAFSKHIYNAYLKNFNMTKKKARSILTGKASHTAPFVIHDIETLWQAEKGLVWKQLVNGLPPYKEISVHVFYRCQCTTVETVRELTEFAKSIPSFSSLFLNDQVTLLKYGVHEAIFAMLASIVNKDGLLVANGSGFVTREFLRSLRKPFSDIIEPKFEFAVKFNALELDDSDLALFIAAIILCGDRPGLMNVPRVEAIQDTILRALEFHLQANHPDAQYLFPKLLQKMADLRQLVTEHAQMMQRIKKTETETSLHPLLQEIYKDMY
# Chain of UniProt P11473 (P11473 whole entry, looked up): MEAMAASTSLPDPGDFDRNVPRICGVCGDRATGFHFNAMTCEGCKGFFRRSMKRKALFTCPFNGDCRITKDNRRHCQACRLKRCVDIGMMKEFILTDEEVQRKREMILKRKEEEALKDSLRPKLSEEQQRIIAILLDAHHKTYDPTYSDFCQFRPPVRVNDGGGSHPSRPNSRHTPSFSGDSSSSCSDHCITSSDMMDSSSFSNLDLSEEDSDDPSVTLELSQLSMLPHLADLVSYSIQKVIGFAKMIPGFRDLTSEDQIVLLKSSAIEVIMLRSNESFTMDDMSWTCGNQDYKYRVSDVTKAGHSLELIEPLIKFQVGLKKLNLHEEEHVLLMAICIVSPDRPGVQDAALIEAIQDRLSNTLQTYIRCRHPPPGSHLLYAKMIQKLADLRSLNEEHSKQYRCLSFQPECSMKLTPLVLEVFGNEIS
# Chain of UniProt P08684 (P08684 whole entry, looked up): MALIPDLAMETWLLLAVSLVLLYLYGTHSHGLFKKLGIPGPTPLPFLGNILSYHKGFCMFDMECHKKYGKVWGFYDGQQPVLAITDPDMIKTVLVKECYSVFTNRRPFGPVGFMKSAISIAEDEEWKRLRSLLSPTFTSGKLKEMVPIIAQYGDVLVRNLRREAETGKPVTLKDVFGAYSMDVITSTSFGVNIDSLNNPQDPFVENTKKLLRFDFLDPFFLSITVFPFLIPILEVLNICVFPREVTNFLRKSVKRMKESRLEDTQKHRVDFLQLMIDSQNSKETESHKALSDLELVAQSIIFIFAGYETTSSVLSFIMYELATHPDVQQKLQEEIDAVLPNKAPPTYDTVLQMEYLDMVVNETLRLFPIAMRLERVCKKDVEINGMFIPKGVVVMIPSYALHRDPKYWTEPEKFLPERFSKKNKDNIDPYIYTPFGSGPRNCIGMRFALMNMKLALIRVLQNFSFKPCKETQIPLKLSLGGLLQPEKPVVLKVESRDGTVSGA
smiles,measurement,setting,value
CCOP(=O)(OCC)Oc1cc(C)nc(C(C)C)n1,"activity change, negative = inhibition",[1]; [24],inconclusive: 7.66%
same,activation,[2],inconclusive: 16.6%
same,activation,[3],inconclusive: 22.5%
same,activation,[4],inactive: -0.273%
same,activity change % (negative = inhibition),[5],inconclusive: -6.73%
C=CCO,Potency,[6],"inconclusive [cytotoxic, single point]"
same,Potency,[1]; [24],inactive
same,Potency,[7],inactive
same,activation,[8],inconclusive: 13.5%
Cc1ccc(N)c(C)c1,Potency,[9],inactive
same,Potency,[1]; [24],inactive
same,Potency,[10],"inconclusive [activator, partial curve, poor fit]"
same,Potency,[11],inactive
same,Potency,[12],inactive
same,activation,[7],inconclusive: 10.3%
same,activation,[8],inconclusive: -11.2%
CNc1cnn(-c2cccc(C(F)(F)F)c2)c(=O)c1Cl,"activity change, negative = inhibition",[1]; [24],inconclusive: 5.98%
same,activation,[2],inconclusive: 1.33%
same,"activity, negative = inhibition",[11],inconclusive: -21.7%
same,Potency,[3],"inconclusive [activator, partial curve, poor fit]"
same,activation,[7],inconclusive: 17.6%
same,Potency,[13],"inconclusive [activator, full curve, poor fit]"
[O-][Cl+]O,Potency,[14],inactive
same,Potency,[15],inactive
same,Potency,[16],inactive
same,"activity change, negative = inhibition",[1]; [24],inconclusive: 25.9%
same,"activity change, negative = inhibition",[17],inconclusive: 9.95%
same,Potency,[3],inactive
same,Potency,[5],"inconclusive [activator, single point]"
same,Potency,[7],inactive
same,activation,[8],inconclusive: -7.62%
CCNc1nc(Cl)nc(NC(C)C)n1,Potency,[18],"inconclusive [cytotoxic, partial curve, poor fit]"
same,Potency,[19],inactive
same,"activity change, negative = inhibition",[1]; [24],inconclusive: 3.91%
same,"activity change, negative = inhibition",[1]; at 76.8 µM (top of the series),inactive: -6.96%
same,Potency,[17],"inconclusive [inhibitor, full curve, poor fit]"
same,"activity change, negative = inhibition",[17],inconclusive: 21.4%
same,Potency,[8],inactive
C#CC(C)(C)NC(=O)c1cc(Cl)cc(Cl)c1,Potency,[1]; [24],inactive
same,"activity change, negative = inhibition",[17],inconclusive: 5.92%
C/C=C/C=O,Potency,[20],inactive
same,Potency,[15],inactive
same,Potency,[16],inactive
same,Potency,[21],inactive
same,Potency,[22],inactive
same,Potency,[9],inactive
same,"activity change, negative = inhibition",[1]; [24],inconclusive: -15.1%
same,max response,[23],inconclusive: -2.7%
same,activation,[7],inconclusive: 8.02%
same,activation,[8],inconclusive: 21.3%
